{"source": "PubChem BioAssay AID1240", "about": "(Sanford-Burnham Center for Chemical Genomics, 2008)", "note": "Hit rate of the full screen: of about 50,000 compounds, about 800 (1.6%) showed an effect of 50% or more. The list shows a part of the results.", "data": [{"target": "Bcl-2-like protein 10 (Homo sapiens) (UniProt Q9HD36)", "sequence (Q9HD36 whole entry, looked up)": "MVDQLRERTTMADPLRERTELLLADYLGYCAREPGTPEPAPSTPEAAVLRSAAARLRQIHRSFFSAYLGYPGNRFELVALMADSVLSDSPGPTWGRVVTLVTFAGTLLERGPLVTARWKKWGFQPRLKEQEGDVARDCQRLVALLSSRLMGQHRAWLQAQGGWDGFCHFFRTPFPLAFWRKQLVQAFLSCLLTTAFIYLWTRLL", "assay": "Phenotype converters, Bcl-B/TR3 peptide binding displacement, primary biochemical FP (AID 1240);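 note: 0% = Bcl-B with tracer peptide and DMSO and 100% = tracer peptide lacking Bcl-B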", "conditions": "GST-Bcl-B / FITC-TR3 peptide fluorescence polarization; stronger effect = higher value; compound at 3.75 mg/L", "units": {"displacement": "%"}, "values": [{"smiles": "CC(C)CC(=O)Nc1ccc(I)cc1C(=O)O", "displacement": 10.5}, {"smiles": "CC(=O)c1cccc(NC(=O)CSc2nc(C)cc(C)n2)c1", "displacement": -4.9}, {"smiles": "O=C(N/N=C/c1ccccn1)c1ccc([N+](=O)[O-])cc1Cl", "displacement": -14.6}, {"smiles": "COc1cc(/C=C2/SC(=S)N(CCC(=O)NC34CC5CC(CC(C5)C3)C4)C2=O)cc(OC)c1OC", "displacement": 11.7}, {"smiles": "O=C(COc1ccc2ccccc2c1)Nc1ccc2c(c1)OCCO2", "displacement": -1.9}, {"smiles": "O=C1C(c2nc3ccccc3s2)=C(O)c2ccccc21", "displacement": 10.9}, {"smiles": "CCOC(=O)c1c(C)oc2c(Br)cc(NS(=O)(=O)c3ccccc3)cc12", "displacement": -0.8}, {"smiles": "COc1ccc(CC(=O)NNC(=O)c2ccc(Cl)cc2)cc1OC", "displacement": -0.6}, {"smiles": "CN1C(=O)NC(=O)/C(=C/c2ccc(-c3cccc(Cl)c3Cl)o2)C1=O", "displacement": 74.5}, {"smiles": "CCCCN1C(=O)/C(=C\\c2ccc(N(CC)CC)cc2)SC1=S", "displacement": -18.9}, {"smiles": "COc1ccc2nc(NC(C)=O)sc2c1", "displacement": 17.4}, {"smiles": "Cc1ccc(C(=O)Nc2cccc(F)c2)cc1S(=O)(=O)N1CCCCC1", "displacement": -7.4}, {"smiles": "COc1cc(C=O)ccc1OC(=O)c1cc(OC)c(OC)c(OC)c1", "displacement": 9.2}, {"smiles": "Cc1cc(/C=C2\\C(=O)NC(=O)N(c3ccccc3)C2=O)c(C)n1-c1cccc([N+](=O)[O-])c1", "displacement": 9.1}, {"smiles": "Cc1ccc(CC2C(=O)N(c3cccc(Cl)c3C)C(=O)C2C)cc1", "note": "(stereo not given)", "displacement": 0.6}, {"smiles": "CC(=O)c1ccc(NC(=O)C2CC(=O)N(c3ccccc3)C2)cc1", "note": "(stereo not given)", "displacement": -2.6}, {"smiles": "O=C1S/C(=C\\c2ccc(-c3ccc([N+](=O)[O-])cc3)o2)C(=O)N1c1ccccc1", "displacement": 70.2}, {"smiles": "CCP(=O)(CC)c1ccccc1CO", "displacement": 0.4}, {"smiles": "O=C(/C=C/c1ccc(-c2ccc(Br)cc2)o1)c1ccc([N+](=O)[O-])cc1", "displacement": -1.7}, {"smiles": "Cc1sc(NC(=O)c2cccs2)c(C#N)c1C", "displacement": 0.5}, {"smiles": "O=Cc1ccc(-c2cccc(OC(F)(F)F)c2)o1", "displacement": -7.2}, {"smiles": "COC(=O)c1ccccc1NC1=NS(=O)(=O)c2ccccc21", "displacement": 6.9}, {"smiles": "CC1(C)Cc2c(sc3[nH]c(=S)n(CCc4ccccc4)c(=O)c23)CO1", "displacement": 0.1}, {"smiles": "CCOc1ccccc1NC(=O)CN(c1cc(C)cc(C)c1)S(=O)(=O)c1ccccc1", "displacement": -1.8}, {"smiles": "CCOn1c(=O)c(-c2cccs2)[n+]([O-])c2ccccc21", "displacement": 121}, {"smiles": "Cc1c(C(=O)Nc2ccc(OC(F)(F)F)cc2)cccc1[N+](=O)[O-]", "displacement": -6.4}, {"smiles": "Cc1ccc(C(C)C)c(OCCNC(=O)c2ccccc2Cl)c1", "displacement": 0}, {"smiles": "CN1C(=O)/C(=C\\c2cc(Br)ccc2OCc2ccccc2)SC1=S", "displacement": -24.5}, {"smiles": "COc1cccc(CN2CCN(Cc3ccc(C(F)(F)F)cc3)CC2)c1OC", "displacement": -4.4}, {"smiles": "CCOC(=O)c1c(NC(=O)c2ccccc2F)sc(C(=O)Nc2ccc(OC)cc2OC)c1C", "displacement": 9.5}, {"smiles": "COc1cc(C)c(/C=C2\\C(=O)NC(=O)N(Cc3ccccc3)C2=O)cc1C", "displacement": -6.7}, {"smiles": "O=C(O)C1C2C=CC(C3CC23)C1C(=O)Nc1ccc(F)cc1", "note": "(stereo not given)", "displacement": 10.5}, {"smiles": "COC(=O)c1cc(NC(=O)c2ccc(OCc3ccccc3)cc2)cc(C(=O)OC)c1", "displacement": 13.9}, {"smiles": "COc1ccc(S(=O)(=O)Nc2ccc(Oc3ccccc3)cc2)cc1Br", "displacement": -7.1}, {"smiles": "COc1cccc(CN2CCN(C3CCCCC3OC)CC2)c1OC", "note": "(stereo not given)", "displacement": -15.9}, {"smiles": "Nc1nc(-c2ccc(C3CCCCC3)cc2)cs1", "displacement": -10.2}, {"smiles": "COc1ccc(/C=C2/SC(=O)N(CC(=O)Nc3ccc(F)c(Cl)c3)C2=O)cc1OC", "displacement": 12.3}, {"smiles": "CCOc1ccc(C(=O)NC(C)(C)C)cc1Cl", "displacement": 11.6}, {"smiles": "Nc1nnnn1/N=C/C=C/c1cccc([N+](=O)[O-])c1", "displacement": 1.9}, {"smiles": "CCOc1ccccc1NC(=O)CN(Cc1ccccc1)S(=O)(=O)c1ccc(OC)c(OC)c1", "displacement": -9.5}, {"smiles": "Cc1ccc(S(=O)(=O)C/N=C(/NC(=S)Nn2cnnc2)c2ccccc2)cc1", "displacement": -13.5}, {"smiles": "NC(=O)CNC(=O)c1ccc(C#CC2(O)CCCCC2)cc1", "displacement": -4.4}, {"smiles": "O=C(/C=C/c1ccccc1)NC(=S)Nc1cc([N+](=O)[O-])cc(Cl)c1O", "displacement": 8.5}, {"smiles": "COc1cccc(OCCn2ccnc2)c1", "displacement": 3.7}, {"smiles": "Clc1ccc(-c2nc(N3CCCC3)c3ccccc3n2)cc1", "displacement": 2.5}, {"smiles": "O=C(COc1ccc([N+](=O)[O-])cc1)Nc1cccc(-c2nc3cc(Cl)ccc3o2)c1", "displacement": 18.9}, {"smiles": "COC(=O)c1ccc(/C=N/NC(=O)CC2=NNC(=O)C2)cc1", "displacement": -23.5}, {"smiles": "CC(c1ccccc1)c1nnc(NC(=O)c2ccco2)s1", "note": "(stereo not given)", "displacement": 12.4}, {"smiles": "COc1ccc(OCCOCCN2CCC(C)CC2)cc1", "displacement": -9.4}, {"smiles": "COc1ccccc1/C=N\\N1CCN(c2ccccc2)CC1", "displacement": -5.3}, {"smiles": "O=c1oc(-c2cc([N+](=O)[O-])cc([N+](=O)[O-])c2)nc2cc(Cl)ccc12", "displacement": -5.7}, {"smiles": "CCc1nc2ccccc2n1Cc1ccc([N+](=O)[O-])cc1", "displacement": 10.4}, {"smiles": "CC(C)CN1C(=O)/C(=C/c2ccccc2F)SC1=S", "displacement": 10.4}, {"smiles": "C#CCSc1nnc2nc(C)cc(C)n12", "displacement": 6.9}, {"smiles": "CC1(C)CC(NC(=O)c2cccc(Br)c2)CC(C)(C)N1", "displacement": 4.9}]}]}
